From the supplement of paper PMC4604168 (melanoma cell lines)
The list shows a part of the results. Repeats are few or missing, and single values can be far off.

Test system: IST-MEL1
Experiment: cell count relative to DMSO control; melanoma cells; higher = more viable cells
Conditions: library dose: standard library concentration; 72 h
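Also: cells treated in 1,536-well plates, then fixed and DAPI-stained, with nuclei counted from automated high-throughput microscope images.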

Row | Structure (SMILES) | cell count [%]
1 | Cn1cc(/C=C2\C(=O)Nc3cccnc32)c2ccccc21 + CCCCCCCCCCCC1=C(O)C(=O)C=C(O)C1=O [Embelin] (first compound 2 µM, partner dose 6 µM) | 55
2 | COc1ccc2c(c1)CCC1C2CCC2(C)C(NCCCCCCN3C(=O)C=CC3=O)CCC12 (stereo unspecified) + CCCCCCCCCCCC1=C(O)C(=O)C=C(O)C1=O [Embelin] (first compound 2 µM, partner dose 6 µM) | 67.4
3 | COc1cc2ncnc(Nc3ccc(Oc4ccccc4)cc3)c2cc1OC + Cn1cc(/C=C2\C(=O)Nc3cccnc32)c2ccccc21 [GW441756] (first compound 10 µM, partner dose 2 µM) | 89.5
4 | Cc1cc([N+](=O)[O-])ccc1NS(=O)(=O)c1cc(Cl)ccc1Cl + COc1cc(N2CCC(N3CCN(C)CC3)CC2)ccc1Nc1ncc(Cl)c(Nc2ccccc2S(=O)(=O)C(C)C)n1 [NVP-TAE684] (first compound 5 µM, partner dose 0.4 µM) | 63.3
5 | N#Cc1c(O)c2c(-c3ccc(-c4ccccc4O)cc3)csc2[nH]c1=O + COc1cc(N2CCC(N3CCN(C)CC3)CC2)ccc1Nc1ncc(Cl)c(Nc2ccccc2S(=O)(=O)C(C)C)n1 [NVP-TAE684] (first compound 10 µM, partner dose 0.4 µM) | 91.2
6 | O=S(=O)(c1ccccc1)N(CC(F)(F)F)c1ccc(C(O)(C(F)(F)F)C(F)(F)F)cc1 + Cc1cc([N+](=O)[O-])ccc1NS(=O)(=O)c1cc(Cl)ccc1Cl [FH535] (first compound 7 µM, partner dose 5 µM) | 64.3
